Some of the results follow. Single values are uncertain, as repeats are few or missing.
What was measured:
Test in all cases: cell count relative to DMSO control; melanoma cells; higher = more viable cells
Conditions in all cases: library dose: standard library concentration; 72 h
G361 = tested on: G361
IPC-298 = tested on: IPC-298
IST-MEL1 = tested on: IST-MEL1
LB2518-MEL = tested on: LB2518-MEL
LOXIMVI = tested on: LOXIMVI
MEL-HO = tested on: MEL-HO
MZ2-MEL = tested on: MZ2-MEL
MeWo = tested on: MeWo
RPMI7951 = tested on: RPMI7951
RVH-421 = tested on: RVH-421
SkMel28 = tested on: SkMel28
SkMel2 = tested on: SkMel2
SkMel30 = tested on: SkMel30
SkMel5 = tested on: SkMel5
UACC257 = tested on: UACC257
UACC62 = tested on: UACC62
WM115 = tested on: WM115
WM1716 = tested on: WM1716
WM1745 = tested on: WM1745
WM3526 = tested on: WM3526
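Further: cells treated in 1,536-well plates, then fixed and DAPI-stained, with nuclei counted from automated high-throughput microscope images.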

SMILES	cell count (G361)	cell count (IPC-298)	cell count (IST-MEL1)	cell count (LB2518-MEL)	cell count (LOXIMVI)	cell count (MEL-HO)	cell count (MZ2-MEL)	cell count (MeWo)	cell count (RPMI7951)	cell count (RVH-421)	cell count (SkMel28)	cell count (SkMel2)	cell count (SkMel30)	cell count (SkMel5)	cell count (UACC257)	cell count (UACC62)	cell count (WM115)	cell count (WM1716)	cell count (WM1745)	cell count (WM3526)
O=C(Nc1cc(C(F)(F)F)cc(C(F)(F)F)c1)c1cc(Cl)ccc1O + COc1ccc(C2=N[C@@H](c3ccc(Cl)cc3)[C@@H](c3ccc(Cl)cc3)N2C(=O)N2CCNC(=O)C2)c(OC(C)C)c1 [Nutlin-3] (first compound 0.08 µM, partner dose 0.5 µM)	67.3%	83.4%	83.4%	73.1%	91%	82.5%	82.3%	101%	121%	73.2%	54.5%	96.1%	109%	73.1%	73.7%	69.8%	83.5%	89%	128%	96.1%
O=C(O)c1ccc2c(c1)nc(Nc1cccc(Cl)c1)c1ccncc12 + COc1cc2ncnc(Nc3ccc(Oc4ccccc4)cc3)c2cc1OC [SrcI1] (first compound 2 µM, partner dose 10 µM)	27.2%	53.9%	82.5%	138%	41.2%	62%	49.4%	52.7%	26.9%	90.8%	47.2%	88.2%	71.1%	57.9%	87.8%	39.2%	70.2%	77.8%		52.9%
O=C(Nc1cc(C(F)(F)F)cc(C(F)(F)F)c1)c1cc(Cl)ccc1O + OCCn1cc(-c2cnc3nnn(Cc4ccc5ncccc5c4)c3n2)cn1 [PF04217903] (first compound 0.08 µM, partner dose 5 µM)	100%	104%	88%	98.4%	124%	94.3%	112%	92.1%	114%	97.1%	106%	97.2%	128%	73.5%	87%	82.2%	90.1%	92.7%	116%	91.5%
O=C(O)c1ccc2c(c1)nc(Nc1cccc(Cl)c1)c1ccncc12 + O=C(CCCCCCC(=O)Nc1ccccc1)NO [vorinostat] (first compound 2 µM, partner dose 0.4 µM)	61.2%	65.3%	77.8%	94%	33%	58.6%	85.1%	84.1%	36.2%	65.7%	50.3%	58.4%	69%	79.1%	56.2%	66.5%	63.9%	55.7%	83.1%	66%
O=C(O)c1ccc2c(c1)nc(Nc1cccc(Cl)c1)c1ccncc12 + CC(=O)c1c(C)c2cnc(Nc3ccc(N4CCNCC4)cn3)nc2n(C2CCCC2)c1=O [palbociclib] (first compound 2 µM, partner dose 0.2 µM)	51.6%	52.6%	75.2%	66.7%	49.9%	49.4%	52.8%	48.9%	59.8%	57.4%	28.8%	49.1%	50.2%	52.7%	71.1%	40.3%	52.2%	38.2%	65.6%	44.2%
O=C(O)c1ccc2c(c1)nc(Nc1cccc(Cl)c1)c1ccncc12 + COc1cc2c(Oc3ccc4[nH]c(C)cc4c3F)ncnc2cc1OCCCN1CCCC1 [cediranib] (first compound 2 µM, partner dose 2 µM)	59.7%	79.2%	77.6%	80.5%	30.9%	75.1%	75.6%	72.5%	49.2%	70.5%	70.2%	64.1%	67.5%	67.3%	98.3%	58.6%	70.7%	87.8%	52.3%	56.8%
O=C(O)[C@@H]1[O][Sb](=[O])([O][Sb]2(=[O])[O][C@H]([C@H](O)CO)[C@H](O)[C@H](C(=O)O)[O]2)[O][C@H]([C@H](O)CO)[C@@H]1O (some centres not stated) [stibogluconate] + O=C1NC(=O)/C(=C/c2ccc(-c3ccc(F)cc3O)o2)S1 [AS252424] (first compound 10 µM, partner dose 5 µM)	94.4%	71.6%	97.9%	74.5%	111%	81.8%	96.4%	79.9%	98.7%	106%	72.7%	98.9%	96%	92.1%	110%	95.3%	116%	94.2%		85.2%
Cn1nnc2c(C(N)=O)ncn2c1=O [temozolomide] + COc1ccc(-c2ccc3c(N4CCOCC4)nc(N4C[C@@H](C)O[C@@H](C)C4)nc3n2)cc1CO [KU0063794] (first compound 10 µM, partner dose 0.1 µM)	68.9%	61.4%	91.3%	79%	77.9%	87%	13.3%	89.4%	92%	94.7%	40.9%	93.3%	64.9%	57.6%	81.1%	91.7%	80.2%	51.8%	96.1%	99%
Cc1cc(N2CCOCC2)cc2[nH]c(-c3c(NC[C@@H](O)c4cccc(Cl)c4)cc[nH]c3=O)nc12 + O=C1NC(=O)/C(=C/c2ccc(-c3ccc(F)cc3O)o2)S1 [AS252424] (first compound 1 µM, partner dose 5 µM)	70.6%	87.4%	98.3%	80%	91.3%	91.6%	90%	76.7%	89.8%	113%	82.7%	74.5%	80.7%	83%	96%	70.2%	110%	115%	46.7%	59.1%
Cc1cc(N2CCOCC2)cc2[nH]c(-c3c(NC[C@@H](O)c4cccc(Cl)c4)cc[nH]c3=O)nc12 + CCc1ccc(CCOc2ccc(CC3SC(=O)NC3=O)cc2)nc1 [pioglitazone] (first compound 1 µM, partner dose 10 µM)	85.8%	106%	101%	75.5%	79.1%	97.3%	107%	74.5%	83.1%	96.9%	68.9%	74%	87%	76%	84.4%	110%	99.4%	94.7%	44.8%	94%
Cn1nnc2c(C(N)=O)ncn2c1=O [temozolomide] + COc1ccc2c(c1)CCC1C2CCC2(C)C(NCCCCCCN3C(=O)C=CC3=O)CCC12 [U73122] (first compound 10 µM, partner dose 2 µM)	93.7%	77.7%	74.3%	90.5%	72.8%	101%	76.1%	50%	35.2%	87.1%	50.6%	93.2%	75.3%	103%	101%	65.9%	71%	56.5%	73.5%	80.1%
O=C(Nc1cc(C(F)(F)F)cc(C(F)(F)F)c1)c1cc(Cl)ccc1O + COc1cc2c(Oc3ccc4[nH]c(C)cc4c3F)ncnc2cc1OCCCN1CCCC1 [cediranib] (first compound 0.08 µM, partner dose 2 µM)	99.5%	88.5%	78.9%	90.8%	75.2%	87%	89.5%	69.2%	47.7%	74.8%	85.4%	83.4%	84.7%	61.6%	65.7%	64.1%	86.7%	87.2%	57.3%	87.8%
O=C(Nc1cc(C(F)(F)F)cc(C(F)(F)F)c1)c1cc(Cl)ccc1O + CC(C)CCN1c2nc(Nc3cc(F)c(O)c(F)c3)ncc2N(C)C(=O)C1C [BID1870] (first compound 0.08 µM, partner dose 1 µM)	65.5%	77.8%	82.9%	86.1%	78.7%	61.2%	92.2%	65.2%	93.6%	113%	72.1%	73.9%	82.3%	62.6%	73.1%	71.8%	103%	78.2%		70.3%
O=C(O)[C@@H]1[O][Sb](=[O])([O][Sb]2(=[O])[O][C@H]([C@H](O)CO)[C@H](O)[C@H](C(=O)O)[O]2)[O][C@H]([C@H](O)CO)[C@@H]1O (some centres not stated) [stibogluconate] + CCCS(=O)(=O)Nc1ccc(F)c(C(=O)c2c[nH]c3ncc(Cl)cc23)c1F [PLX4720] (first compound 10 µM, partner dose 0.4 µM)	90.4%	57.9%	89.5%	93.3%	101%	90.7%	85.3%	102%	113%	83.3%	35%	83.5%	90.6%	65.8%	103%	58.1%	84.9%	62.3%	85.5%	53.6%
O=C(O)[C@@H]1[O][Sb](=[O])([O][Sb]2(=[O])[O][C@H]([C@H](O)CO)[C@H](O)[C@H](C(=O)O)[O]2)[O][C@H]([C@H](O)CO)[C@@H]1O (some centres not stated) [stibogluconate] + Cn1nnc2c(C(N)=O)ncn2c1=O [temozolomide] (first compound 10 µM, partner dose 10 µM)	88.8%	70.6%	73.7%	106%	74.2%	79.7%	80.1%	95.6%	124%	143%	29.3%	79.1%	60.7%	107%	118%	58.3%	94.6%	51.5%	82.3%	89.1%
O=C(Nc1ccccc1)c1cc([N+](=O)[O-])ccc1Cl + COc1cc2ncnc(Nc3ccc(Oc4ccccc4)cc3)c2cc1OC [SrcI1] (first compound 10 µM, partner dose 10 µM)	66.9%	68.6%	85.7%	112%	120%	78.2%	52.8%	60.9%	44.5%	111%	80.3%	94.8%	83.9%	53.9%	79.5%	72.5%	52%	79.5%	48.9%	58.3%
O=C(O)c1ccc2c(c1)nc(Nc1cccc(Cl)c1)c1ccncc12 + Cn1c(Nc2ccc(C(F)(F)F)cc2)nc2cc(Oc3ccnc(-c4ncc(C(F)(F)F)[nH]4)c3)ccc21 [CHIR265] (first compound 2 µM, partner dose 0.4 µM)	15.8%	47.1%	79.7%	48.6%	84.9%	39.9%	79.7%	63.1%	30.7%	41.4%	30.4%	47.9%	48.9%	35.9%	67.6%	21.9%	41.4%	76.3%	43.2%	34.6%

Reference: the supplement of paper PMC4604168 (melanoma cell lines)
